Compound in the assay: CC[C@H](Nc1ncnc2[nH]cnc12)c1nc2cccc(F)c2c(=O)n1-c1ccccc1 [CAL-101]
Put plainly: Viability of human cancer cell lines after 72 h of drug (GDSC screen). Here is the method: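 Human cancer cell lines in 384-well plates, medium with 10% serum, drug for 72 h over a 256-fold dose range (nine 2-fold or five 4-fold steps up to the top dose). Adherent lines were fixed and stained with the nucleic acid dye Syto60, suspension lines read with resazurin; signal relative to control wells, capped at 0 and 100%. One two-parameter sigmoid per drug and line, fitted in a mixed model over all curves with the slope shared within a line.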

A lower IC50 marks a more sensitive line; a fit beyond the top or the lowest dose is shown as a bound at that dose. AUC, from the same fit, is the share of area under the viability curve across the 256-fold dose range; values near 1 show little effect.

From the supplement of paper PMC4967469 come the findings set out here.

As for “SW872 (soft tissue, adherent, top dose 20 µM)”, the AUC is 0.978 and the IC50 is over 20 µM.

As to “SW900 (lung squamous cell carcinoma, adherent, top dose 20 µM)”, the AUC amounted to 0.959 and the IC50 is over 20 µM.

On to “SW948 (large intestine, adherent, top dose 20 µM)”, for which the AUC is 0.968 and the IC50 was over 20 µM.

Take “SW954 (urogenital system, adherent, top dose 20 µM)”: the AUC amounted to 0.869 and the half-maximal inhibitory concentration (IC50) came to 18.7 µM.

“SW962 (urogenital system, adherent, top dose 20 µM)”: the AUC amounted to 0.945 and the IC50 is over 20 µM.

As for “SW982 (soft tissue, adherent, top dose 20 µM)”, the AUC was found to be 0.984 and the IC50 was over 20 µM.

Turning to “SW1088 (glioma, adherent, top dose 20 µM)”, the AUC is 0.953 and the concentration for half-maximal inhibition (IC50) was over 20 µM.

For the cell line “SW1116 (large intestine, adherent, top dose 20 µM)”, the AUC turned out to be 0.983 and the 50% inhibitory concentration (IC50) was over 20 µM.

With “SW1271 (small cell lung carcinoma, adherent, top dose 20 µM)”, the AUC was found to be 0.958 and the concentration for half-maximal inhibition (IC50) is over 20 µM.

Consider “SW1417 (large intestine, adherent, top dose 20 µM)”, for which the AUC was 0.972 and the IC50 was over 20 µM.

Take “SW1463 (large intestine, adherent, top dose 20 µM)”: the AUC turned out to be 0.6 and the IC50 stood at 2.85 µM.

Take “SW1573 (lung adenocarcinoma, adherent, top dose 20 µM)”: the AUC was 0.964 and the IC50 is over 20 µM.

With “SW1710 (bladder, adherent, top dose 20 µM)”, the AUC stood at 0.879 and the IC50 is over 20 µM.

“SW1783 (glioma, adherent, top dose 20 µM)”: the AUC was found to be 0.947 and the IC50 is over 20 µM.

In the case of “SW1990 (pancreas, adherent, top dose 20 µM)”, the AUC came out at 0.982 and the half-maximal inhibitory concentration (IC50) is over 20 µM.

With “Saos-2 (osteosarcoma, adherent, top dose 20 µM)”, the AUC came out at 0.971 and the IC50 was over 20 µM.

Turning to SiHa (cervix, adherent, top dose 20 µM), the AUC is 0.986 and the 50% inhibitory concentration (IC50) was over 20 µM.

As for T47D (breast, adherent, top dose 20 µM), the AUC stood at 0.765 and the half-inhibitory concentration (IC50) is 11.5 µM.

Take “T84 (large intestine, adherent, top dose 20 µM)”: the AUC was 0.974 and the IC50 is over 20 µM.

Take T98G (glioma, adherent, top dose 20 µM): the AUC amounted to 0.962 and the IC50 is over 20 µM.

“T-24 (bladder, adherent, top dose 20 µM)”: the AUC came to 0.957 and the IC50 is over 20 µM.

On to “T-T (oesophagus, adherent, top dose 20 µM)”, for which the AUC was determined as 0.986 and the IC50 is over 20 µM.

As to “TALL-1 (T-cell lymphoblastic leukaemia, suspension, top dose 20 µM)”, the AUC stood at 0.987 and the IC50 is over 20 µM.

As for “TC-71 (Ewing sarcoma, adherent, top dose 20 µM)”, the AUC amounted to 0.986 and the IC50 was over 20 µM.

Take “TCCSUP (bladder, adherent, top dose 20 µM)”: the AUC was determined as 0.98 and the half-maximal inhibitory concentration (IC50) is over 20 µM.

For the cell line “TE-1 (oesophagus, adherent, top dose 20 µM)”, the AUC is 0.972 and the half-maximal inhibitory concentration (IC50) was over 20 µM.

For the cell line “TE-4 (oesophagus, adherent, top dose 20 µM)”, the AUC came to 0.98 and the half-maximal inhibitory concentration (IC50) is over 20 µM.

Regarding “TE-5 (oesophagus, adherent, top dose 20 µM)”, the AUC was 0.973 and the IC50 is over 20 µM.

In general, IC50 refers to the point on the concentration scale where inhibition reaches its midpoint.
